According to patent publication US9873709B2 (priority 2013, dated 2018):

Target: isolated recombinant JAK1 kinase domain (Homo sapiens (Human), UniProt P23458)
Conditions: read-out: JAK1 Ki; isolated recombinant JAK1 kinase domain, 25 μM ATP

Compound	Ki [nM]
CCOC(=O)N1CC=C(c2cccn3nc(Nc4ccc(C(=O)N5CCC(c6ccccn6)CC5)cc4)nc23)CC1 [Example 2-358, ethyl 4-[2-[4-[4-(2-pyridyl)piperidine-1-carbonyl]anilino]-[1,2,4]triazolo[1,5-a]pyridin-8-yl]-3,6-dihydro-2H-pyridine-1-carboxylate]	1.99
CCOC(=O)N1CC=C(c2cccn3nc(Nc4ccc(C(=O)N(C)Cc5cccc6cccnc56)cc4)nc23)CC1 [Example 2-359, ethyl 4-[2-[4-[methyl(8-quinolylmethyl)carbamoyl]anilino]-[1,2,4]triazolo[1,5-a]pyridin-8-yl]-3,6-dihydro-2H-pyridine-1-carboxylate]	6.11
CCOC(=O)N1CC=C(c2cccn3nc(Nc4ccc(C(=O)NC5CCNCC5)cc4)nc23)CC1 [Example 2-360, ethyl 4-[2-[4-(4-piperidylcarbamoyl)anilino]-[1,2,4]triazolo[1,5-a]pyridin-8-yl]-3,6-dihydro-2H-pyridine-1-carboxylate]	1.32
CCOC(=O)N1CC=C(c2cccn3nc(Nc4ccc(C(=O)N(C)Cc5ccncc5)cc4)nc23)CC1 [Example 2-361, ethyl 4-[2-[4-[methyl(4-pyridylmethyl)carbamoyl]anilino]-[1,2,4]triazolo[1,5-a]pyridin-8-yl]-3,6-dihydro-2H-pyridine-1-carboxylate]	1.7
CCOC(=O)N1CC=C(c2cccn3nc(Nc4ccc(C(=O)NCCC5CCCN5)cc4)nc23)CC1 (stereo not drawn) [Example 2-362, ethyl 4-[2-[4-(2-pyrrolidin-2-ylethylcarbamoyl)anilino]-[1,2,4]triazolo[1,5-a]pyridin-8-yl]-3,6-dihydro-2H-pyridine-1-carboxylate]	1.75
CCOC(=O)N1CC=C(c2cccn3nc(Nc4ccc(C(=O)N5CCN(CC6CCCO6)CC5)cc4)nc23)CC1 (stereo not drawn) [Example 2-363, ethyl 4-[2-[4-[4-(tetrahydrofuran-2-ylmethyl)piperazine-1-carbonyl]anilino]-[1,2,4]triazolo[1,5-a]pyridin-8-yl]-3,6-dihydro-2H-pyridine-1-carboxylate]	2.67
CCOC(=O)N1CC=C(c2cccn3nc(Nc4ccc(C(=O)N(CCOC)C5CCN(C)CC5)cc4)nc23)CC1 [Example 2-364, ethyl 4-[2-[4-[2-methoxyethyl-(1-methyl-4-piperidyl)carbamoyl]anilino]-[1,2,4]triazolo[1,5-a]pyridin-8-yl]-3,6-dihydro-2H-pyridine-1-carboxylate]	5.69
CCOC(=O)N1CC=C(c2cccn3nc(Nc4ccc(C(=O)N(C)C5CCN(C(C)C)CC5)cc4)nc23)CC1 [Example 2-365, ethyl 4-[2-[4-[(1-isopropyl-4-piperidyl)-methyl-carbamoyl]anilino]-[1,2,4]triazolo[1,5-a]pyridin-8-yl]-3,6-dihydro-2H-pyridine-1-carboxylate]	4.34
CCOC(=O)N1CC=C(c2cccn3nc(Nc4ccc(C(=O)N5CC6CC5CN(C)C6)cc4)nc23)CC1 (stereo not drawn) [Example 2-366, ethyl 4-[2-[4-(3-methyl-3,6-diazabicyclo[3.2.1]octane-6-carbonyl)anilino]-[1,2,4]triazolo[1,5-a]pyridin-8-yl]-3,6-dihydro-2H-pyridine-1-carboxylate]	3.66
CCOC(=O)N1CC=C(c2cccn3nc(Nc4ccc(C(=O)N5CCN(C6CC6)CC5)cc4)nc23)CC1 [Example 2-367, ethyl 4-[2-[4-(4-cyclopropylpiperazine-1-carbonyl)anilino]-[1,2,4]triazolo[1,5-a]pyridin-8-yl]-3,6-dihydro-2H-pyridine-1-carboxylate]	4.62
CCOC(=O)N1CC=C(c2cccn3nc(Nc4ccc(C(=O)N5C[C@@H]6CCN[C@@H]6C5)cc4)nc23)CC1 [Example 2-371, ethyl 4-[2-[4-[(3aS,6aS)-2,3,3a,4,6,6a-hexahydro-1H-pyrrolo[2,3-c]pyrrole-5-carbonyl]anilino]-[1,2,4]triazolo[1,5-a]pyridin-8-yl]-3,6-dihydro-2H-pyridine-1-carboxylate]	2.68
CCOC(=O)N1CC=C(c2cccn3nc(Nc4ccc(C(=O)N(C)CCN)cc4)nc23)CC1 [Example 2-374, ethyl 4-[2-[4-[2-aminoethyl(methyl)carbamoyl]anilino]-[1,2,4]triazolo[1,5-a]pyridin-8-yl]-3,6-dihydro-2H-pyridine-1-carboxylate]	2.52

Next, values leading:

Ki [nM]	Compound
3.57	CCOC(=O)N1CC=C(c2cccn3nc(Nc4ccc(C(=O)N5CCN(C6CCC6)CC5)cc4)nc23)CC1 [Example 2-368, ethyl 4-[2-[4-(4-cyclobutylpiperazine-1-carbonyl)anilino]-[1,2,4]triazolo[1,5-a]pyridin-8-yl]-3,6-dihydro-2H-pyridine-1-carboxylate]
2.62	CCOC(=O)N1CC=C(c2cccn3nc(Nc4ccc(C(=O)N5CCCC6(CCCN(C)C6)C5)cc4)nc23)CC1 (stereo not drawn) [Example 2-369, ethyl 4-[2-[4-(8-methyl-2,8-diazaspiro[5.5]undecane-2-carbonyl)anilino]-[1,2,4]triazolo[1,5-a]pyridin-8-yl]-3,6-dihydro-2H-pyridine-1-carboxylate]
1.37	CCOC(=O)N1CC=C(c2cccn3nc(Nc4ccc(C(=O)N5CC6(CCNC6)C5)cc4)nc23)CC1 [Example 2-372, ethyl 4-[2-[4-(2,7-diazaspiro[3.4]octane-2-carbonyl)anilino]-[1,2,4]triazolo[1,5-a]pyridin-8-yl]-3,6-dihydro-2H-pyridine-1-carboxylate]
2.76	CCOC(=O)N1CC=C(c2cccn3nc(Nc4ccc(C(=O)N5CCCC56CCNCC6)cc4)nc23)CC1 [Example 2-373, ethyl 4-[2-[4-(1,8-diazaspiro[4.5]decane-1-carbonyl)anilino]-[1,2,4]triazolo[1,5-a]pyridin-8-yl]-3,6-dihydro-2H-pyridine-1-carboxylate]
2.54	CCOC(=O)N1CC=C(c2cccn3nc(Nc4ccc(C(=O)N5CCC6(CCCCN6)C5)cc4)nc23)CC1 (stereo not drawn) [Example 2-376, ethyl 4-[2-[4-(2,6-diazaspiro[4.5]decane-2-carbonyl)anilino]-[1,2,4]triazolo[1,5-a]pyridin-8-yl]-3,6-dihydro-2H-pyridine-1-carboxylate]
1.1	O=C(CCC(F)(F)F)N1CC=C(c2cccn3nc(Nc4ccc(C(=O)N5CCC6(CCCN6)C5)cc4)nc23)CC1 (stereo not drawn) [Example 2-377, 1-[4-[2-[4-(1,7-diazaspiro[4.4]nonane-7-carbonyl)anilino]-[1,2,4]triazolo[1,5-a]pyridin-8-yl]-3,6-dihydro-2H-pyridin-1-yl]-4,4,4-trifluoro-butan-1-one]
1.53	O=C(CCC(F)(F)F)N1CC=C(c2cccn3nc(Nc4ccc(C(=O)N5CCC6(CCCCN6)C5)cc4)nc23)CC1 (stereo not drawn) [Example 2-378, 1-[4-[2-[4-(2,6-diazaspiro[4.5]decane-2-carbonyl)anilino]-[1,2,4]triazolo[1,5-a]pyridin-8-yl]-3,6-dihydro-2H-pyridin-1-yl]-4,4,4-trifluoro-butan-1-one]
1.46	O=C(CCC(F)(F)F)N1CC=C(c2cccn3nc(Nc4ccc(C(=O)N5CCC6(CNC6)C5)cc4)nc23)CC1 [Example 2-379, 1-[4-[2-[4-(2,6-diazaspiro[3,4]octane-6-carbonyl)anilino]-[1,2,4]triazolo[1,5-a]pyridin-8-yl]-3,6-dihydro-2H-pyridin-1-yl]-4,4,4-trifluoro-butan-1-one]
1.55	O=C(CCC(F)(F)F)N1CC=C(c2cccn3nc(Nc4ccc(C(=O)N5CCCC6(CCCCN6)C5)cc4)nc23)CC1 (stereo not drawn) [Example 2-383, 1-[4-[2-[4-(1,8-diazaspiro[5.5]undecane-8-carbonyl)anilino]-[1,2,4]triazolo[1,5-a]pyridin-8-yl]-3,6-dihydro-2H-pyridin-1-yl]-4,4,4-trifluoro-butan-1-one]
1.73	O=C(CCC(F)(F)F)N1CC=C(c2cccn3nc(Nc4ccc(C(=O)N5CCCC6(CCCN6)CC5)cc4)nc23)CC1 (stereo not drawn) [Example 2-384, 1-[4-[2-[4-(1,9-diazaspiro[4.6]undecane-9-carbonyl)anilino]-[1,2,4]triazolo[1,5-a]pyridin-8-yl]-3,6-dihydro-2H-pyridin-1-yl]-4,4,4-trifluoro-butan-1-one]
1.06	O=C(NCC1CCCCN1)c1ccc(Nc2nc3c(C4=CCN(C(=O)CCC(F)(F)F)CC4)cccn3n2)cc1 (stereo not drawn) [Example 2-385, N-(2-piperidylmethyl)-4-[[8-[1-(4,4,4-trifluorobutanoyl)-3,6-dihydro-2H-pyridin-4-yl]-[1,2,4]triazolo[1,5-a]pyridin-2-yl]amino]benzamide]
1.21	O=C(CCC(F)(F)F)N1CC=C(c2cccn3nc(Nc4ccc(C(=O)N5CCC6CNCC65)cc4)nc23)CC1 (stereo not drawn) [Example 2-386, 1-[4-[2-[4-(3,3a,4,5,6,6a-hexahydro-2H-pyrrolo[2,3-c]pyrrole-1-carbonyl)anilino]-[1,2,4]triazolo[1,5-a]pyridin-8-yl]-3,6-dihydro-2H-pyridin-1-yl]-4,4,4-trifluoro-butan-1-one]
0.88	O=C(CCC(F)(F)F)N1CC=C(c2cccn3nc(Nc4ccc(C(=O)N5C[C@@H]6CCN[C@@H]6C5)cc4)nc23)CC1 [Example 2-387, 1-[4-[2-[4-[(3aS,6aS)-2,3,3a,4,6,6a-hexahydro-1H-pyrrolo[2,3-c]pyrrole-5-carbonyl]anilino]-[1,2,4]triazolo[1,5-a]pyridin-8-yl]-3,6-dihydro-2H-pyridin-1-yl]-4,4,4-trifluoro-butan-1-one]
1.14	O=C(NCC1CC12CCNCC2)c1ccc(Nc2nc3c(C4=CCN(C(=O)CCC(F)(F)F)CC4)cccn3n2)cc1 (stereo not drawn) [Example 2-388, N-(6-azaspiro[2.5]octan-2-ylmethyl)-4-[[8-[1-(4,4,4-trifluorobutanoyl)-3,6-dihydro-2H-pyridin-4-yl]-[1,2,4]triazolo[1,5-a]pyridin-2-yl]amino]benzamide]
1.34	CN1CCCC(CN(C)C(=O)c2ccc(Nc3nc4c(C5=CCN(C(=O)CCC(F)(F)F)CC5)cccn4n3)cc2)C1 (stereo not drawn) [Example 2-389, N-methyl-N-[(1-methyl-3-piperidyl)methyl]-4-[[8-[1-(4,4,4-trifluorobutanoyl)-3,6-dihydro-2H-pyridin-4-yl]-[1,2,4]triazolo[1,5-a]pyridin-2-yl]amino]benzamide]
